We go through 46 molecules from PMC4336329 (PLoS ONE, 2015).

The structures appear in SMILES notation. The whole screen tested about 310,000 compounds, of which about 14,000 (4.5%) showed an effect of 50% or more. Effects have a minus sign here. Some of the results follow.
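Note: peak tail current of the secondary pulse compared with the same well before compound.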

The test deals with human ether-à-go-go-related gene (hERG) potassium channel (human, UniProt Q12809). Kind of test: primary screen, population patch clamp on CHO cells stably expressing hERG.
human ether-à-go-go-related gene (hERG) potassium channel, sequence (Q12809 whole entry, looked up): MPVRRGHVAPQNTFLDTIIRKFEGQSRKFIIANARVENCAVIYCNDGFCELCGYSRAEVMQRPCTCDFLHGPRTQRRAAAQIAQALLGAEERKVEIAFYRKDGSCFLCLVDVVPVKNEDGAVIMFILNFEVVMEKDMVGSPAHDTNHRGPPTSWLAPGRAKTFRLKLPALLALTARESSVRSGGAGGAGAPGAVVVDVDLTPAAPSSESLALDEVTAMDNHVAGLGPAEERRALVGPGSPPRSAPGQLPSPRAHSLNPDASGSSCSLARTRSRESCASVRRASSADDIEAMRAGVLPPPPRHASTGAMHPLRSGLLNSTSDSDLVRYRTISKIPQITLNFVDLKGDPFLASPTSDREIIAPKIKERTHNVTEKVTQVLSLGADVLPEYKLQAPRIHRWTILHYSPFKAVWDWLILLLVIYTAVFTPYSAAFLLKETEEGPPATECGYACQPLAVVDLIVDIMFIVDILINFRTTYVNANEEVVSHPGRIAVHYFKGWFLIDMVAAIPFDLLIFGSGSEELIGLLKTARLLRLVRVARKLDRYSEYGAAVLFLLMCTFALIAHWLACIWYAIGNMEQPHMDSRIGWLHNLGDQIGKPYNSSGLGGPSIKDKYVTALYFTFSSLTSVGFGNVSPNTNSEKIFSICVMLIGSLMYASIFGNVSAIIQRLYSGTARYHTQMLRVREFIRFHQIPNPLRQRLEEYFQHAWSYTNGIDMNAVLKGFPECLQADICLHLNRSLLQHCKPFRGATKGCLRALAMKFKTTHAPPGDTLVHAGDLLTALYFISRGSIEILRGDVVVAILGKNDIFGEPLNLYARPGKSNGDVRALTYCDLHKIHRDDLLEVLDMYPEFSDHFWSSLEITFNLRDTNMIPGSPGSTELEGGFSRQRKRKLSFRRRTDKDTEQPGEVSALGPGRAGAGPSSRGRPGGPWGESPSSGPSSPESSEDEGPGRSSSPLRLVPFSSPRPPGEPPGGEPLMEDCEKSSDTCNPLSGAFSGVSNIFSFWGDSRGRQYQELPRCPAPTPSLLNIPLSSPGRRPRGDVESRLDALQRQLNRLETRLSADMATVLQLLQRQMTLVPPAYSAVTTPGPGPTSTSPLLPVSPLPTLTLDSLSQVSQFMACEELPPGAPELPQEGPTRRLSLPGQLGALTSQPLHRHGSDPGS
For the molecule `Cc1ccc(NC(=S)Nc2cccc3ccccc23)cc1F`, the “hERG current change (%, negative = inhibition) at 10uM” value is recorded as -1.2%. The figure for `CCn1c(=O)c2c(n3cnnc13)-c1ccccc1CC21CCCCC1` is 16.2%; for `COC(=O)C1=C(c2ccc(OC(F)(F)F)cc2)C[C@@H]2CC[C@H]1N2C(=O)NCCOc1ccccc1Cl` it is 3.24%. As for `Cl.OCCN1CCN(c2nc(NCc3ccco3)c3ccccc3n2)CC1`, the “hERG current change (%, negative = inhibition) at 10uM” value is listed as -75.3%. As to `Cc1ccc(C)c(NC(=S)N(CCN(C)C)C(C)c2ccccn2)c1` (stereo not shown), the “hERG current change (%, negative = inhibition) at 10uM” value was -23.5%. Turning to `COc1ccc(-c2cc(C(=O)NCC3CCCO3)c3ccccc3n2)c(OC)c1` (stereo not shown), the “hERG current change (%, negative = inhibition) at 10uM” value is given as -0.667%. For `Cc1cccc(NC(=O)C2C(c3ccccc3)C2(Cl)Cl)c1` (stereo not shown), the “hERG current change (%, negative = inhibition) at 10uM” value is listed as -5.35%. For the molecule `CC12CCC(C(=O)N(c3cccc(Cl)c3)C1=O)C2(C)C` (stereo not shown), the “hERG current change (%, negative = inhibition) at 10uM” value is listed as -4.23%.

For the molecule `Cn1c(=O)c(=O)n(C)c2cc(S(=O)(=O)N3CCOc4ccccc43)ccc21`, the “hERG current change (%, negative = inhibition) at 10uM” value was -12.6%. In the case of `Cc1c(C(=O)Nc2ccc(N3CCOCC3)cc2)oc2ccccc12`, the “hERG current change (%, negative = inhibition) at 10uM” value was determined as 4.53%.

As to `Cc1ccc(/C=N/Nc2nc(C)cc(C)n2)cc1`, the “hERG current change (%, negative = inhibition) at 10uM” value was -4.25%. The figure for `COc1cccc(N(CC(=O)NC2CCCCCC2)S(=O)(=O)c2ccccc2)c1` is 14.6%. For the molecule `CCOc1cc(C(F)(F)F)cnc1/C(N)=N/O`, the “hERG current change (%, negative = inhibition) at 10uM” value is given as 16.8%.

Turning to `O=C(CSc1ccc2nnc(-c3cccc(F)c3)n2n1)NCc1ccco1`, the “hERG current change (%, negative = inhibition) at 10uM” value is reported as -65.5%.

With `CCN(CC)CC(C)(C)NS(=O)(=O)c1ccc(Cl)cc1`, the “hERG current change (%, negative = inhibition) at 10uM” value was -0.261%. Regarding `CCc1c(C2(O)CCCCC2)[nH]c2ncccc12`, the “hERG current change (%, negative = inhibition) at 10uM” value was -4.04%. The figure for `COc1ccc(N(Cc2cc3ccc(C)cc3[nH]c2=O)C(=O)C2CCCO2)cc1` (stereo not shown) is 4.69%. The figure for `CCCCCC[n+]1c(-c2ccccc2)csc1Nc1ccccc1.[Br-]` is -5.77%; for `COc1cc(OC)cc(C(=O)N2CCN(C(=O)c3ccc(OC)c(OC)c3)CC2)c1` it is -14%; for `COc1ccc(OC(C)C(=O)N(C)Cc2nc(-c3ccc(OC)cc3)no2)cc1` (stereo not shown) it is -37.7%. `CCOC(=O)CCc1c(C)n(CC)c2ncnn2c1=O`: the “hERG current change (%, negative = inhibition) at 10uM” value was determined as 9.93%. The figure for `COc1ccc(NC(=O)c2cccc3ccccc23)cc1` is -4.94%; for `COc1ccc(CC(=O)Nc2ccc(S(=O)(=O)Nc3nccs3)cc2)cc1` it is 8.73%; for `CC1C2CC(C/C2=N/NC(=O)c2cccs2)C1(C)C` (stereo not shown) it is -4.4%.

On to `CC(C)NC(=O)c1n[nH]c(=O)c2ccccc12`, for which the “hERG current change (%, negative = inhibition) at 10uM” value is on record as 2.4%. The figure for `CCOc1ccc(NC(=O)C2CCCN2S(=O)(=O)c2ccc(OCC)cc2)cc1` (stereo not shown) is -14.3%. The figure for `Cc1cc(/C=C2\SC(=O)NC2=O)c(C)n1-c1ccc(N(C)C)cc1` is -4.47%; for `O=c1c(-c2ccnn2-c2ccccc2F)cnc2n1CCS2` it is -2.56%; for `O=C(CN1C(=O)NC2(CCCC2)C1=O)NCCC1=CCCCC1` it is 9.47%. The figure for `O=S1(=O)CCO[C@H]2Cc3ccccc3[C@H]2N1Cc1ccc(Cl)cc1` is 1.62%; for `O=C(Nc1cc(S(=O)(=O)N2CCCCCC2)ccc1OCC(F)(F)F)c1cnccn1` it is 7.43%; for `O=c1cc(O)nc(-c2ccccc2)s1` it is 22.3%. As for `CCCC(=O)Nc1ccc(N2CCN(S(C)(=O)=O)CC2)cc1`, the “hERG current change (%, negative = inhibition) at 10uM” value was 1.49%. In the case of `COc1cc(C(=O)NCCOC(=O)c2cccc(N(C)C)c2)cc(OC)c1OC`, the “hERG current change (%, negative = inhibition) at 10uM” value is 8.97%. The figure for `CCCCn1c(N)c(S(=O)(=O)c2ccc(C)cc2)c2nc3ccccc3nc21` is -0.298%; for `CCOC(=O)CSc1nc(=O)n2cc(C)ccc2n1` it is 8.24%. The figure for `c1ccc2c3c(ccc2c1)OCC1CONC31` (stereo not shown) is 22%; for `COc1ccc(C(=O)N/C(=C\c2cn(C)c3ccccc23)C(=O)N2CCN(C)CC2)cc1OC` it is -3.26%; for `Cc1nn(CC(=O)Nc2ccc(Cl)cn2)c(C)c1Br` it is -2.04%. The figure for `COc1cc(Cl)ccc1OCc1cc(C(=O)N2CCCCCC2)no1` is 4.67%. For the molecule `COC(=O)c1ccccc1NC(=O)C1CCC(=O)N1S(=O)(=O)c1ccc(C)cc1` (stereo not shown), the “hERG current change (%, negative = inhibition) at 10uM” value is reported as -6.52%.

For `COc1ccccc1NC(=O)CSc1nc2ccccc2n1C(C)=O`, the “hERG current change (%, negative = inhibition) at 10uM” value was -14%. The figure for `COc1ccc(C(=O)Nc2nc(-c3ccc(S(=O)(=O)N4CCOCC4)cc3)cs2)cc1` is -6.46%. Consider `Cc1ccc2sc(N(CCN(C)C)C(=O)c3ccc(S(=O)(=O)N4CC(C)OC(C)C4)cc3)nc2c1C.Cl` (stereo not shown), for which the “hERG current change (%, negative = inhibition) at 10uM” value is reported as 1.87%. The figure for `O=C(CCc1nnc(-c2ccc(-c3ccccc3)cc2)o1)NCCc1ccccn1` is -25.7%; for `CCOc1ccc(-c2nc(S(=O)(=O)c3ccccc3)c(NC)o2)cc1` it is 13.2%.
